# Results published in ChEMBL document CHEMBL1961873, “Compounds: GSK PKIS; Assays: Nanosyn kinase panel” (2012).
# For some assays here: Most of the strong results are listed elsewhere, so they are rarer here than in the full data. Only a part is listed here, and it is no random draw.
# Key:
# [1] = target: T1, Serine/threonine-protein kinase MARK2 (Homo sapiens) (UniProt Q7KZI7); conditions: at 1 µM
# T1 sequence (whole entry): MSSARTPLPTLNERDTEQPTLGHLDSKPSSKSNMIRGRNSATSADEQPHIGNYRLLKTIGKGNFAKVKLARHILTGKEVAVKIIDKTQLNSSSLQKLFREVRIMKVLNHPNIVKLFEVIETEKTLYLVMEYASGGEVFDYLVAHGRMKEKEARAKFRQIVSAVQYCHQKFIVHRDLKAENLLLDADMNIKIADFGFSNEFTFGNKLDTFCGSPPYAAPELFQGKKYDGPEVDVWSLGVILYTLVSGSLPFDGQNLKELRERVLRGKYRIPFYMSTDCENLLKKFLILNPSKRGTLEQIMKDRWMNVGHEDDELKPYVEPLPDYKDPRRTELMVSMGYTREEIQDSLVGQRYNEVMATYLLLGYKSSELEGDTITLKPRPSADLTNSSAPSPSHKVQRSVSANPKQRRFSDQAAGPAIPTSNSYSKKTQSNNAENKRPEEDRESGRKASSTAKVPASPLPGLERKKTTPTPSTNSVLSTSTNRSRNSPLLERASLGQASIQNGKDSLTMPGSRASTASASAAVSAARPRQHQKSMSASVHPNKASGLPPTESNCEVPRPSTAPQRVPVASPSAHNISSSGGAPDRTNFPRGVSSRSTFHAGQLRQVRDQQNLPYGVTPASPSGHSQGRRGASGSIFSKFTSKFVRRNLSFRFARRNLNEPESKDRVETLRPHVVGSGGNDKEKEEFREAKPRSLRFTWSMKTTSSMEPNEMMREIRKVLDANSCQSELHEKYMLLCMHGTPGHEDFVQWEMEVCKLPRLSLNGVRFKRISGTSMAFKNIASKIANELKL
# [2] = target: PAS domain-containing serine/threonine-protein kinase (Homo sapiens) (UniProt Q96RG2); conditions: at 0.1 µM
# Sequence of UniProt Q96RG2 (Q96RG2 whole entry, the tested form may be a part, canonical isoform): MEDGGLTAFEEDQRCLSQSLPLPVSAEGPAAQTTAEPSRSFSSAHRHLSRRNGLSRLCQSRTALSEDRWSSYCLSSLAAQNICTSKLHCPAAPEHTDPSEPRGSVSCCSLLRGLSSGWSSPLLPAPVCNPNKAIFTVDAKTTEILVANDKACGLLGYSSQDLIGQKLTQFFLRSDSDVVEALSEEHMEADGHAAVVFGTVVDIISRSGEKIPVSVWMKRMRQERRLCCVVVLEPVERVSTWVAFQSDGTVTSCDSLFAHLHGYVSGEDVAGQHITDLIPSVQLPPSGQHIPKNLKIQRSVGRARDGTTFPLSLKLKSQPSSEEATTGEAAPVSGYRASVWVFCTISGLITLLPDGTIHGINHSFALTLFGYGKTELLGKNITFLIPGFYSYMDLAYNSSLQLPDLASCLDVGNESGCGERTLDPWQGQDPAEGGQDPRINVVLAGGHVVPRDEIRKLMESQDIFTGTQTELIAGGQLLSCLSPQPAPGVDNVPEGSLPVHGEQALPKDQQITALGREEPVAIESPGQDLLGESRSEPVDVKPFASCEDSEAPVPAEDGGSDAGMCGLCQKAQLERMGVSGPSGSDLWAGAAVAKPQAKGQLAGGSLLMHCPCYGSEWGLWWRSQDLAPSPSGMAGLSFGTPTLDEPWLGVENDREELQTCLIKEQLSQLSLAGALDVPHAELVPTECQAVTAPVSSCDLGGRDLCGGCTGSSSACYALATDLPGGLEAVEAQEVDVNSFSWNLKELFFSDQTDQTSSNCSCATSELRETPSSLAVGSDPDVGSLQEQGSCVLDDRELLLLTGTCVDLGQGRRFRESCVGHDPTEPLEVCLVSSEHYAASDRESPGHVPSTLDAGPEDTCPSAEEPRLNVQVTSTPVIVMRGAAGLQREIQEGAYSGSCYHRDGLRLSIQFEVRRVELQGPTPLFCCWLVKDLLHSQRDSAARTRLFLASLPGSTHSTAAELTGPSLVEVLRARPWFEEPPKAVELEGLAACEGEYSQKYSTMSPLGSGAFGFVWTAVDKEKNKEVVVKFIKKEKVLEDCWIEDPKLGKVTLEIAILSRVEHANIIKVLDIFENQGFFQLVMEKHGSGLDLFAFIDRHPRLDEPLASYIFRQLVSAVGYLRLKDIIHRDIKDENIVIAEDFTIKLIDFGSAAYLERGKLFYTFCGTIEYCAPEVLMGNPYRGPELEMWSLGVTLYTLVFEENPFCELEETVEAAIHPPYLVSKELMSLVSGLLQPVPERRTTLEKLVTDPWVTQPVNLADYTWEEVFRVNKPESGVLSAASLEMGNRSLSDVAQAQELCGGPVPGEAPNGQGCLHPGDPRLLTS
# [3] = target: PAS domain-containing serine/threonine-protein kinase (Homo sapiens) (UniProt Q96RG2); conditions: at 1 µM
# [4] = target: Phosphorylase b kinase gamma catalytic chain, skeletal muscle/heart isoform (Homo sapiens) (UniProt Q16816); conditions: at 0.1 µM
# Sequence of UniProt Q16816 (Q16816 whole entry, looked up, canonical isoform): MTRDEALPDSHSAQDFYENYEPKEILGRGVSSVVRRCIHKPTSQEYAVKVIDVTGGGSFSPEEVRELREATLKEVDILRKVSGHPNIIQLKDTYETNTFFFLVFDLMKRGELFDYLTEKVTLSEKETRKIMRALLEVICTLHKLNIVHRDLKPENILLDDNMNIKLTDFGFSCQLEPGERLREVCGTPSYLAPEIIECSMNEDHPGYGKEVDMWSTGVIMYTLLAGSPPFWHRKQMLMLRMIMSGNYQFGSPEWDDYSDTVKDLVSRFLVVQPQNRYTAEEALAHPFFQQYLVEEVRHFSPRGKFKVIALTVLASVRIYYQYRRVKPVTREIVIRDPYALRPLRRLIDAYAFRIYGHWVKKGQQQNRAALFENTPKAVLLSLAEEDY
# [5] = target: Phosphorylase b kinase gamma catalytic chain, skeletal muscle/heart isoform (Homo sapiens) (UniProt Q16816); conditions: at 1 µM
# [6] = target: T2, Phosphorylase b kinase gamma catalytic chain, liver/testis isoform (Homo sapiens) (UniProt P15735); conditions: at 0.1 µM
# T2 sequence (whole entry): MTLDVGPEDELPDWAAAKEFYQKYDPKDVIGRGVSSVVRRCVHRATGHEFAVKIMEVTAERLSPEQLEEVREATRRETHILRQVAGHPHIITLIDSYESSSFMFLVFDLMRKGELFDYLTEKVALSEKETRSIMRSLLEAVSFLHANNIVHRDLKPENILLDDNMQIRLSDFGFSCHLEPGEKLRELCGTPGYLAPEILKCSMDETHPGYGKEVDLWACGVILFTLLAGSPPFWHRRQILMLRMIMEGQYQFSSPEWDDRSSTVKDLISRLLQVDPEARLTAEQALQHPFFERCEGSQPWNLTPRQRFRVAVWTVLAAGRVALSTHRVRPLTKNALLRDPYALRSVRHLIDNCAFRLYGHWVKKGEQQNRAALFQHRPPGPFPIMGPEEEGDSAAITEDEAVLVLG
# [7] = target: T2, Phosphorylase b kinase gamma catalytic chain, liver/testis isoform (Homo sapiens); conditions: at 1 µM
# [8] = target: Serine/threonine-protein kinase pim-1 (Homo sapiens) (UniProt P11309); conditions: at 0.1 µM
# Sequence of UniProt P11309 (P11309 whole entry, looked up): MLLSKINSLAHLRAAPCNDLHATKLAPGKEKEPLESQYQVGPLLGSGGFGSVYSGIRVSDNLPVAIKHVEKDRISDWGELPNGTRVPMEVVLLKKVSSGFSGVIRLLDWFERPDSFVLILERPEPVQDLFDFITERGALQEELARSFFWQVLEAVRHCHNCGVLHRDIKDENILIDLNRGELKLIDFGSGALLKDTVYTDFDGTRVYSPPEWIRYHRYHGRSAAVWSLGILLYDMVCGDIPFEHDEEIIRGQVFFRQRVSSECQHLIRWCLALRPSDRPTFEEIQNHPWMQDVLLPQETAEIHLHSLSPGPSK
# [9] = target: Serine/threonine-protein kinase pim-1 (Homo sapiens) (UniProt P11309); conditions: at 1 µM
# [10] = target: Serine/threonine-protein kinase pim-2 (Homo sapiens) (UniProt Q9P1W9); conditions: at 0.1 µM
# Sequence of UniProt Q9P1W9 (Q9P1W9 whole entry, looked up): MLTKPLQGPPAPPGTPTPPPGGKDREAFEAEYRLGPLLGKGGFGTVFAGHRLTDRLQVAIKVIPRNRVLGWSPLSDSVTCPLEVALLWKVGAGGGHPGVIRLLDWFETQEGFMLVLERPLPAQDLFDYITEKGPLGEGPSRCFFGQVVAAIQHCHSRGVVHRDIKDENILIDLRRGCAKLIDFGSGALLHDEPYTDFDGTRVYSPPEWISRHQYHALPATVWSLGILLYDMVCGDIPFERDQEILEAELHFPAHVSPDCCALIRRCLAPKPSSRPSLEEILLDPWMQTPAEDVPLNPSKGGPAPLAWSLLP
# [11] = target: Serine/threonine-protein kinase pim-2 (Homo sapiens) (UniProt Q9P1W9); conditions: at 1 µM
# [12] = target: Serine/threonine-protein kinase pim-3 (Homo sapiens) (UniProt Q86V86); conditions: at 0.1 µM
# [13] = target: Serine/threonine-protein kinase pim-3 (Homo sapiens) (UniProt Q86V86); conditions: at 1 µM
# [14] = target: T3, MAP kinase-activated protein kinase 5 (Homo sapiens) (UniProt Q8IW41); conditions: at 0.1 µM
# T3 sequence (whole entry): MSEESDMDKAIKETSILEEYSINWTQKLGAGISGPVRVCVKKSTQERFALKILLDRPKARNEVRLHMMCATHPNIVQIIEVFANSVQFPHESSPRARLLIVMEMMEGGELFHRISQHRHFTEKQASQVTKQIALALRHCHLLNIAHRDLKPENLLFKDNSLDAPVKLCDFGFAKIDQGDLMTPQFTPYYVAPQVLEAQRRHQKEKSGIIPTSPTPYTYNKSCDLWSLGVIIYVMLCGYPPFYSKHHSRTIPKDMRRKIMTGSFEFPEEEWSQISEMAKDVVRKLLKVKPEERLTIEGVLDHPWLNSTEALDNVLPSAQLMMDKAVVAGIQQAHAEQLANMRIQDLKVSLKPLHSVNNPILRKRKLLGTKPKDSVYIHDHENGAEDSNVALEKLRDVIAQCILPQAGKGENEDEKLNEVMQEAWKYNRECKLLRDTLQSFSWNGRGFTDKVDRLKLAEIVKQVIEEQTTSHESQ
# [15] = target: T3, MAP kinase-activated protein kinase 5 (Homo sapiens); conditions: at 1 µM
# [16] = target: Serine/threonine-protein kinase SIK1 (Homo sapiens) (UniProt P57059); conditions: at 0.1 µM
# Sequence of UniProt P57059 (P57059 whole entry): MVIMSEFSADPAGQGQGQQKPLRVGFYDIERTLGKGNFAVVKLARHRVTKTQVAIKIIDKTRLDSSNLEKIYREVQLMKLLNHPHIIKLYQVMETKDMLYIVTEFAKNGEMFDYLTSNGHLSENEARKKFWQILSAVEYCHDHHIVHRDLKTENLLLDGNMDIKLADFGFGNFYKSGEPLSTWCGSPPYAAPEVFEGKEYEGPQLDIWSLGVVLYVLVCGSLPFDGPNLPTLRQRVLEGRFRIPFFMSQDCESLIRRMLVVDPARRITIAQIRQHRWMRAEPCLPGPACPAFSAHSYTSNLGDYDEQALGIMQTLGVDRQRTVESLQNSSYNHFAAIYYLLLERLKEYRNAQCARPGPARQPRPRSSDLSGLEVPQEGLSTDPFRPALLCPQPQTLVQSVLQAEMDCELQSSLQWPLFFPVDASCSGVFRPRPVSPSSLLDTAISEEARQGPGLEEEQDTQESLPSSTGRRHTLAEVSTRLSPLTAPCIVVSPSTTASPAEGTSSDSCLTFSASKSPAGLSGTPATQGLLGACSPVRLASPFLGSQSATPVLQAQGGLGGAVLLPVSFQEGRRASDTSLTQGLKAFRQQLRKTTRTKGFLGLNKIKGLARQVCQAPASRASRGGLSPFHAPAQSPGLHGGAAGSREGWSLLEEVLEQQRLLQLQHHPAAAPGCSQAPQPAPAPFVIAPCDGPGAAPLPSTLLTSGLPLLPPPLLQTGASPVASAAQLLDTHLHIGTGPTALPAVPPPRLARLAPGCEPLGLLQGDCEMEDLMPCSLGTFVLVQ
# [17] = target: Serine/threonine-protein kinase SIK1 (Homo sapiens) (UniProt P57059); conditions: at 1 µM
# [18] = target: Serine/threonine-protein kinase SIK2 (Homo sapiens) (UniProt Q9H0K1); conditions: at 0.1 µM
# Sequence of UniProt Q9H0K1 (Q9H0K1 whole entry, looked up): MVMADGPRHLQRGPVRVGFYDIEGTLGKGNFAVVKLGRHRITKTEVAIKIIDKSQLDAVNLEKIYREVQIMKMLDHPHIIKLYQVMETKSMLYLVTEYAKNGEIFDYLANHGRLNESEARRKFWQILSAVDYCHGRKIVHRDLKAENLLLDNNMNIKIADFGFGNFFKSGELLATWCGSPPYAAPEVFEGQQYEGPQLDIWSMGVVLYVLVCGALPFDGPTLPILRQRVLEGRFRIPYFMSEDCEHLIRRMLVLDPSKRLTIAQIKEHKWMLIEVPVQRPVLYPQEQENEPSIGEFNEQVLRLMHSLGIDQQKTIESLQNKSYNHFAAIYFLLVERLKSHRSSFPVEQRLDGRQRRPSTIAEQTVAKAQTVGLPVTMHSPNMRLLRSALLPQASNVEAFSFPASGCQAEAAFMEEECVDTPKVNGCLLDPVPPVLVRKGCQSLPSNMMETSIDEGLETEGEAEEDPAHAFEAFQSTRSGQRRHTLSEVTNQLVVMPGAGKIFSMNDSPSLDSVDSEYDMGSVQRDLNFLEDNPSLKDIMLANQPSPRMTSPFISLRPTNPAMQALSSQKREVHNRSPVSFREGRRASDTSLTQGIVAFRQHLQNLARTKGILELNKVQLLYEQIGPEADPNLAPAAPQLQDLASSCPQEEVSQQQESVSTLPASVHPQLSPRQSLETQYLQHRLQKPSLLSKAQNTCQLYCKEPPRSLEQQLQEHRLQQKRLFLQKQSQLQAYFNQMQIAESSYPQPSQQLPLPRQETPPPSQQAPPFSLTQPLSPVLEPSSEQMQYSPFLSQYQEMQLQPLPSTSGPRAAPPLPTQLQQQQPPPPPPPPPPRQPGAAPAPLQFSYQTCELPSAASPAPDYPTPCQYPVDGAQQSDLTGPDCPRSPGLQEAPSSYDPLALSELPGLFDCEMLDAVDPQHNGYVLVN
# [19] = target: Serine/threonine-protein kinase SIK2 (Homo sapiens) (UniProt Q9H0K1); conditions: at 1 µM
# [20] = target: T4, Serine/threonine-protein kinase TBK1 (Homo sapiens) (UniProt Q9UHD2); conditions: at 0.1 µM;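 note: values are the mean TBK1 inhibition, taken from the GSK PKIS screening data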
# T4 sequence (whole entry): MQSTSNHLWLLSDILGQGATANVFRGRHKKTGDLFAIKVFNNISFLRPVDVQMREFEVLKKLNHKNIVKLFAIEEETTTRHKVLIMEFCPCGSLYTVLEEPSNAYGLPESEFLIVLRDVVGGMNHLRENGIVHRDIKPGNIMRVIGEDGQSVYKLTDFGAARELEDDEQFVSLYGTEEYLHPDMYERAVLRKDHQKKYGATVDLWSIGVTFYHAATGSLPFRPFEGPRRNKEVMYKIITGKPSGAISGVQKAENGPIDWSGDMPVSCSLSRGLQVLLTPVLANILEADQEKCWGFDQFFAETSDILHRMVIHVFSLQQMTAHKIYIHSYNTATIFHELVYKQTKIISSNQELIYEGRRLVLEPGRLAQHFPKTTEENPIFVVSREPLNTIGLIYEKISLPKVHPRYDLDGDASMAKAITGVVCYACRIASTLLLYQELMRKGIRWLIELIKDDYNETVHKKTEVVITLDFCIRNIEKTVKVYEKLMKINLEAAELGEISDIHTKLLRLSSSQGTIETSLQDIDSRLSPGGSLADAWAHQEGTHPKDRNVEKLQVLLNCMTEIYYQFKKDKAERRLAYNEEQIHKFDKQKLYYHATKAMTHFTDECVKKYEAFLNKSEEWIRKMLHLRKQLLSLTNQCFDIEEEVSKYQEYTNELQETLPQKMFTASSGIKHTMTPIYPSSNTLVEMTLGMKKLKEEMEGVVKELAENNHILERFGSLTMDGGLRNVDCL
Compound,inhibition [1] [%],inhibition [2] [%],inhibition [3] [%],inhibition [4] [%],inhibition [5] [%],inhibition [6] [%],inhibition [7] [%],inhibition [8] [%],inhibition [9] [%],inhibition [10] [%],inhibition [11] [%],inhibition [12] [%],inhibition [13] [%],inhibition [14] [%],inhibition [15] [%],inhibition [16] [%],inhibition [17] [%],inhibition [18] [%],inhibition [19] [%],inhibition [20] [%]
Fc1ccc(-c2ncn(C3CCNCC3)c2-c2ccnc(Oc3cccc(F)c3)n2)cc1,4.61,0,0.05,3.42,7.42,5.51,5.22,1.22,2.85,-0.15,-0.55,0.23,2.96,2.07,2.21,2.7,12,4.38,10.9,3.75
COc1ccccc1Oc1nccc(-c2c(-c3ccc(F)cc3)ncn2C2CCNCC2)n1,4.49,0.89,0.84,6.35,10.1,4.53,5.85,0.49,1.74,0.39,0.22,0.3,0.98,2.17,2.36,2.31,9,4.38,13.6,3.06
O=C1NC(=O)C(c2ccccc2)=C1Nc1ccccc1,3.58,0.23,1.08,5.83,7.96,6.24,7.75,1.66,3.1,3.49,6.61,4.19,9.78,2.24,2.98,7.22,13.4,8.29,13.6,2.92
O=C1NC(=O)C(c2cccc([N+](=O)[O-])c2)=C1Nc1cc(Cl)c(O)c(Cl)c1,6.07,0.71,1.32,4.22,4.24,3.23,2.81,-0.22,1.59,0.69,1.61,-0.07,0.87,0.57,0.55,0.44,3.71,-0.86,5.17,7.31
O=C(O)c1ccc(Oc2nccc(-c3c(-c4ccc(F)cc4)ncn3C3CCNCC3)n2)cc1,4.16,-2.47,-1.26,0.98,3.36,5.58,4.12,1.46,2.36,-0.61,-0.48,0.4,1.76,3.09,1.69,2.57,12.6,0.04,8.52,4.78
CS(=O)(=O)c1ccc(Oc2nccc(-c3c(-c4ccc(F)cc4)ncn3C3CCNCC3)n2)cc1,-1.37,-0.46,0.12,6.04,4.61,4.27,4,0.75,1.73,0.42,0.6,0.09,-0.2,1.47,1.7,3.17,6.69,1.55,4.8,0.81
Fc1ccc(Oc2nccc(-c3c(-c4ccc(F)cc4)ncn3C3CCNCC3)n2)cc1,1.71,-2.4,-1.41,1.33,3.72,5.4,5.05,-0.75,-0.29,-4.34,-4.57,-0.79,0.31,2.6,2.88,4,10.3,1.1,8.54,5.6
CC(C)(C)c1ccc(Oc2nccc(-c3c(-c4ccc(F)cc4)ncn3C3CCNCC3)n2)cc1,0.66,0.2,0.03,4.06,7.23,3.19,3.37,0.98,2.2,0.14,0.77,0.02,1.23,1.26,0.81,5.1,8.61,6.78,15.9,1.92
NC(=O)CCc1ccccc1Oc1nccc(-c2c(-c3ccc(F)cc3)ncn2C2CCNCC2)n1,1.87,0.54,-0.3,1.98,4.11,-2.36,-4.51,-0.02,1.75,-0.27,0.12,0.62,1.86,-0.4,-0.44,-2.99,–,-8.81,-5.47,2.53
Fc1ccc(-c2ncn(C3CCNCC3)c2-c2ccnc(Oc3ccc(Cl)cc3)n2)cc1,2.28,–,0.41,4.08,4.85,-2.35,-2.67,0.09,1.92,0.62,1.13,0.92,1.65,0.49,0.27,2.71,7.66,-0.28,-0.03,-0.4
O=C1NC(=O)C(c2ccccc2Cl)=C1Nc1cc(Cl)c(O)c(Cl)c1,0.24,-0.25,1.3,-0.47,3.29,3.06,6.84,1.02,1.2,-0.59,0.46,0.36,3.53,2.09,2.74,3.99,5.76,6.42,-0.37,0.38
COc1ccccc1C1=C(Nc2ccccc2)C(=O)NC1=O,13.3,0.75,0.53,2.69,8.01,5.15,4.8,0.56,1.26,-0.65,0.14,-0.2,1.17,0.91,1.14,8.64,18.2,7.72,27.8,2.56
Cc1cccc(Oc2nccc(-c3c(-c4ccc(F)cc4)ncn3C3CCNCC3)n2)c1C,3.51,0.32,0.29,6.63,7.78,5.29,5.11,-0.71,1.66,-0.07,0.06,-0.86,0.15,1.27,1.32,0.93,9.26,7.26,12.6,1.51
Fc1ccc(-c2ncn(C3CCNCC3)c2-c2ccnc(Oc3cccc(C(F)(F)F)c3)n2)cc1,1.08,-0.12,0.95,7.66,7.21,8.37,7.18,-0.31,1.39,0.19,0.36,0.35,1.37,2.24,2.15,5.71,10.1,4.99,9.11,4.6
